B1: SEQ ID NO: 1: Recombinant protein: Shortened substance (1-60)-shortened linker-Fc fusion (mutant modified) (protein)
chain: GSDQSENVDRGAGSIREAGGAFGKREQAEEERYFRAQSREQLAALKKHHEEEIVHHKKEIGGGGS[human IgG1 Fc with changes omitted here]
B2: SEQ ID NO: 3: Recombinant protein: Shortened amino acid modified substance (1-60; G20S, F34M mutation introduced)-repeat-type linker-Fc fusion (mutant modified) (protein)
chain: GSDQSENVDRGAGSIREAGSAFGKREQAEEERYMRAQSREQLAALKKHHEEEIVHHKKEIGGGGSGGGGSGGGGS[human IgG1 Fc with changes omitted here]
B3: SEQ ID NO: 7: Recombinant protein: Shortened substance (1-60)-linker-GLP1 sequence-GLP1-linker-Fc fusion (protein)
chain: GSDQSENVDRGAGSIREAGGAFGKREQAEEERYFRAQSREQLAALKKHHEEEIVHHKKEIGGGGSGGGGSGGGGSHGEGTFTSDVSSYLEEQAAKEFIAWLVKGGGGGGGSGGGGSGGGGSA[human IgG4 Fc with S228P (EU numbers) omitted here]

Columns and labels:
[1] = Half-life in mice by ELISA; type: in vivo; conditions: C57BL6/J mice, subcutaneous 5 mg/kg
Procedure: The half-life of the fusion protein was further measured by ELISA (Enzyme-Linked Immunosorbent Assay). Each test substance was subcutaneously injected to the C57BL6/J mice at a concentration of 5 mg/kg, and then blood was separated by time.
The separated blood was added to a 96-well plate coated with a capture antibody, and each well was washed with PBS (phosphate buffered saline) 3 times. A detection solution was added to each well and the wavelengths value thereof were read at 450 nm and analyzed.

[2] = test system: Akt and S6 (phosphorylation, p-Akt/p-S6) in C2C12 mouse skeletal muscle cell line; assay: Akt and S6 phosphorylation (western blot) in C2C12 muscle cells; type: cell-based; conditions: 2 hours; for Activity (% increase compared to control) Differentiated Akt / Activity (% increase compared to control) Differentiated S6: C2C12 differentiated into myotubes; for Activity (% increase compared to control) Differentiated Akt / Activity (% increase compared to control) Differentiated S6 / Activity of Akt and S6 compared with control and His tag-wild-type substance (SEQ ID NO: 5): 100 nM; for Activity (% increase compared to control) Differentiated Akt / Activity (% increase compared to control) Differentiated S6 / Activity (% increase compared to control) Undifferentiated Akt / Activity (% increase compared to control) Undifferentiated S6: control PBS; for Activity of Akt and S6 compared with control and His tag-wild-type substance (SEQ ID NO: 5): differentiated cell line; for Activity (% increase compared to control) Undifferentiated Akt / Activity (% increase compared to control) Undifferentiated S6: undifferentiated C2C12, 100 nM
Procedure: In order to evaluate functions related to muscle loss diseases, each test substance was treated to the undifferentiated C2C12 mouse skeletal muscle cell line (mouse myoblast cell line) or the cell line in which differentiation into myotubes was completed. Differentiation of the cell line into myotubes was performed by conducting addition of 2% horse serum to culture medium and replacement with new medium every two days for a total of 4 days.
To the undifferentiated or differentiated cell lines, the test substances, fusion proteins (SEQ ID NOs: 1, 2, 3, 7, 14 and 15) were treated at a concentration of 100 nM (Control: PBS treated group) for 2 hours. Thereafter, the cells were immediately washed once and the cells were lysed with RIPA buffer (Radioimmunoprecipitation assay buffer). The activity of Akt and S6 (phosphorylation, p-Akt/p-S6) was observed by western blot. Akt phosphorylation is a well-known marker of activation of cell signaling pathways, and is an indicator of beneficial effects on muscle cells such as promotion of glucose metabolism and promotion of muscle biosynthesis. Similarly, S6 phosphorylation is a well-known marker of mTOR activity, and the activity of mTOR is an indicator showing muscle biosynthesis and various cell signaling pathways.

[3] = test system: MDA-MB-231 triple-negative breast cancer cell line; assay: MTT cell viability in breast cancer cells; type: cell-based; conditions: 1 μM, 48 hours; compared with Control (PBS), SEQ ID NO: 4 and SEQ ID NO: 5
Procedure: Next, the test substances, the fusion proteins (SEQ ID NO: 1, 2, 3, 7, 14, 15) and shortened sequences (SEQ ID NOs: 9, 10, 11, 12) were treated to MDA-MB-231 triple-negative breast cancer cell line at a concentration of 1 μM (Control: PBS) for 48 hours. Thereafter, the cells were washed with PBS once, and the cells were suspended in serum-free buffer. The MTT (3-[4,5-dimethylthiazol-2-yl]-2,5-diphenyltetrazolium bromide) substance was added thereto at 0.5 mg/ml and incubated at 37° C. for 2 hours. Then, they were washed with PBS once, and the cells were lysed with DMSO for 15 minutes. The solution was transferred to a new plate and the absorbance was measured at 590 nm using a microplate reader.

MDA-MB-231 cell line = assay: Reactive oxygen generation (DCF-FA) in breast cancer cells; type: cell-based; conditions: 1 μM, 24 hours; compared with Control and SEQ ID NO: 5
Procedure: In addition, in order to examine generation of reactive oxygen that plays an important role in cancer cell death, each test substance was treated to the MDA-MB-231 cell line at a concentration of 1 μM (Control: PBS) for 24 hours. Then, the cells were stained with DCF-FA and their fluorescence values were observed and compared at 485/535 nm.

cAMP (cyclic AMP) = assay: cAMP level (hTRF) in undifferentiated 3T3-L1 cells; type: cell-based, mouse; conditions: undifferentiated 3T3-L1, 100 nM with 0.5 mM IBMX, 30 minutes; compared with Control and SEQ ID NO: 5
Procedure: To observe the functionality of the fusion proteins related to lipid metabolism, the 3T3-L1 mouse pre-adipocyte cell line was used as the cell line itself (undifferentiated) or by differentiating into adipocytes. Differentiation into the adipocytes was performed by inducing primary differentiation for the 3T3-L1 cells in a medium containing DMEM, 10% FBS, 10 μg/ml insulin, 0.5 mM IBMX (3-Isobutyl-1-methylxanthine), and 1 μM dexamethasone for 2 days, and inducing secondary differentiation with a medium containing DMEM, 10% FBS, and 10 μg/ml insulin for the remaining 4 days. The adipocytes in which differentiation was finally completed were treated with the test substances at a concentration of 100 nM for 30 hours (Control: PBS) and then used for each test.
Next, changes in cAMP (cyclic AMP), a signaling mediator contributing to lipolysis and energy metabolism were evaluated in the undifferentiated adipocytes. The undifferentiated cells were treated with the test substances at a concentration of 100 nM (Control: PBS) with 0.5 mM IBMX for 30 minutes. Thereafter, the level of cAMP was evaluated by the hTRF (Homogeneous Time Resolved Fluorescence) method (using CAMP Gs dynamic kit from Cisbio). As a result of the measurement, it was confirmed that the level of cAMP was higher in the groups treated with the fusion proteins (SEQ ID NOs: 1, 2, 3, 7, 13, 14, 15) and shortened sequences (sequences 9, 10, 11) compared with the Control and His tag-wild-type substance (1-81) (SEQ ID NO: 5) (FIG. 7).

[4] = test system: SH-SY5Y dopaminergic neuron cell line; assay: MTT cell viability of neuron cells under rotenone; type: cell-based; conditions: 1 µM rotenone + 100 nM test substance, 24 hours; compared with rotenone alone
Procedure: (§1) The SH-SY5Y dopaminergic neuron cell line was treated with 1 µM of a toxic substance, rotenone and 100 nM of each test substance simultaneously. After 24 hours, the MTT cell viability or the effect of reducing reactive oxygen was observed.

[5] = test system: SH-SY5Y dopaminergic neuron cell line; assay: Reactive oxygen in neuron cells under rotenone; type: cell-based; conditions: 1 µM rotenone + 100 nM test substance, 24 hours; compared with rotenone alone
Procedure: as §1

[6] = test system: diet-induced obesity-induced mouse model; assay: Diet-induced obesity-induced model study I; type: in vivo, C57BL/6N mice; conditions: versus Control
Procedure: (§2) In order to confirm the efficacy of the fusion protein against diseases according to obesity and further, sarcopenic obesity, disease induction was carried out in mice through diet-induced obesity. As an animal model, C57BL/6N was used, and was used after an acclimation period by providing normal diet for 1 week, and the housing conditions were maintained at 18~24° C., and 50~60% humidity, and ad libitum feeding with free access to feed and water was carried out during both the acclimation period and experimental period. In the mice after the acclimation period for 1 week, obesity was induced by a high-fat diet (Research Diets, Inc. D12492) to induce disease.
The mice in which obesity induction was completed were divided into a Control and an experimental group (Control: n=8, No. 1: n=6, No. 2: n=6), and PBS to the control group, and the fusion protein (SEQ ID NO: 1, 2) to the experimental group were subcutaneously injected at a dose 5 mg/kg 6 times a week for 10 weeks and the efficacy thereof was observed.

[7] = test system: diet-induced obesity-induced mouse model; assay: Diet-induced obesity-induced model study III; type: in vivo, C57BL/6N mice; conditions: 5 mg/kg subcutaneous 6 times a week for 2 weeks; versus Control
Procedure: as §2
The mice in which obesity was induced were divided into a Control and an experimental group (Control: n=8, No. 3: n=7), and PBS to the Control and the fusion protein (SEQ ID NO: 3) to the experimental group were subcutaneously injected at a dose of 5 mg/kg 6 times a week for 2 weeks, and the efficacy thereof was observed.

[8] = test system: diet-induced obesity-induced mouse model; assay: Diet-induced obesity-induced model study IV; type: in vivo, C57BL/6N mice; conditions: 5 mg/kg subcutaneous 6 times a week for 10 days; before versus after administration
Procedure: as §2
The mice in which obesity introduction was completed (No. 7: n=7) were subcutaneously injected with the fusion protein (SEQ ID NO: 7) at a dose of 5 mg/kg 6 times a week for 10 days, and the efficacy thereof was compared and observed before and after administration.

[9] = 5 mg/kg subcutaneous 6 times a week for 10 weeks
[10] = after 3 weeks of administration

Row | Molecule | Half-life [1] | Activity (% increase compared to control) Differentiated Akt [2] | Activity (% increase compared to control) Differentiated S6 [2] | Activity of Akt and S6 compared with control and His tag-wild-type substance (SEQ ID NO: 5) [2] | Activity (% increase compared to control) Undifferentiated Akt [2] | Activity (% increase compared to control) Undifferentiated S6 [2] | Cell viability (MTT) [3] | Reactive oxygen generation (MDA-MB-231 cell line) | Level of cAMP (cAMP (cyclic AMP)) | Cell viability (MTT) [4] | Generation of reactive oxygen [5] | also measured
1 | B1 | 39.6 h | 231% | 486% | significantly higher activity | 314% | 294% | significantly low | generated higher | higher | significantly increased | significantly inhibited | Blood sugar [6, 9]: reduced; Final body weight [6, 9]: reduced at a significant level; Size of lipid droplets in liver tissue [6, 9]: significantly reduced; Fat tissue mass (DXA assay) [6, 10]: significant decrease; Muscle mass (DXA assay) [6, 10]: maintained
2 | B2 | 74.7 h | 463% | 587% | significantly higher activity | 421% | 302% | significantly low | generated higher | higher | significantly increased | significantly inhibited | Fat tissue ratio [7]: decrease; Final body weight [7]: reduced at a significant level; Muscle tissue ratio [7]: increase
3 | B3 |  | 411% | 446% | significantly higher activity | 377% | 513% | significantly low | generated higher | higher | significantly increased | significantly inhibited | Body weight [8]: reduced at a significant level; Fat tissue ratio [8]: decrease; Muscle tissue ratio [8]: increase

Source: US20260274910A1, “SINGLE FUSION PROTEIN AND PHARMACEUTICAL COMPOSITION” (MEDI&GENE INC., priority 2023, published 2026)
